Test results published in PubChem BioAssay AID1347120 (National Center for Advancing Translational Sciences (NCATS), 2019).
Hit rate of the full screen: of about 390,000 compounds, about 930 (0.24%) were called active. Inconclusive results, whose numbers are uncertain, are shown with a selection of clear calls. Calls come from the whole dose curve; as a rule, active = well fitted activation curve with a large enough effect; inconclusive = small, poorly fitted or top-dose-only effect; inactive = no such curve, though single readings can be large or run the other way. A potency beside an inconclusive call is a rough fit, not a confirmed value.

assay: qHTS for Suppressors of FUS Proteinopathy: Primary screen using FUS-linked yeast assay; note: nearly all actives have a fitted effect of over 55% in size;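 for growth rescue (activation): plate controls were DMSO vehicle for no effect and reference control for full effect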; conditions: S. cerevisiae FUS-expressing, OD600, 24 h; Potency: growth rescue; growth rescue (activation): at 76.6 µM (top of the series)
In short: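 Restored growth of FUS-toxic S. cerevisiae, read as 600 nm absorbance after 24 h at 30C in galactose medium (starting OD 0.005). Controls CP55940 and DMSO.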
Potency is the fitted concentration of half-maximal effect; tags give direction and shape of the fitted curve.

| SMILES | Potency | growth rescue (activation) |
| --- | --- | --- |
| O=C(CN1CCN(c2cccc(Cl)c2)CC1)Nc1ccc([N+](=O)[O-])cc1C(=O)Nc1ccccc1F | inconclusive: 50.1 µM [activator, single point] |  |
| COc1ccc(S(=O)(=O)Nc2ccc3c(c2)CCCN3S(=O)(=O)c2ccc(C)cc2)cc1F | inconclusive: 35.5 µM [activator, single point] |  |
| CCOc1ccc(CCN2C(=S)N([C@@H](CC(C)C)CN3CCCC3CN3C(=S)NC[C@@H]3Cc3ccc(O)cc3)C[C@@H]2CC(C)C)cc1 (stereo partly drawn) | inconclusive: 28.2 µM [activator, single point] |  |
| CCn1ccc2c(OCC(=O)Nc3ccccc3C)cccc2c1=O |  | inactive: 8.97% |
| COc1ccc2c3c([nH]c2c1)C1=NCC[C@]12c1ccccc1N=CN2CC3 |  | inactive: -4.95% |
| N#C/C(=C/c1cn(-c2ccccc2)nc1-c1cccc(OCc2ccc(F)cc2)c1)C(=O)NCCCn1ccnc1 | inconclusive: 35.5 µM [activator, single point] |  |
| OCc1cn(-c2ccccc2)nc1-c1ccc(Br)cc1 |  | inactive: -8.99% |
| CCc1cccc(C)c1NC(=S)NCC1CCN(c2ccc(OC)cc2)C1 (stereo not drawn) | inconclusive: 11.2 µM [activator, full curve, poor fit] |  |
| COc1ccc(CNC(=O)C23CN(Cc4ccccc4)CC2C(c2ccc([N+](=O)[O-])cc2)=NO3)cc1 (stereo not drawn) | inconclusive: 35.5 µM [activator, single point] |  |
| COc1cc(NC(=O)c2cc(C)nc3c2c(C)nn3-c2ccccc2Cl)cc(OC)c1 | inconclusive: 20 µM [activator, single point] |  |
| O=C(c1cc(COc2ccc(F)cc2Cl)on1)N1CCSCC1 |  | inactive: -6.03% |
| CC(=O)NCc1ccc(C(=O)CSc2nnc(-c3ccncc3)n2Cc2ccccc2)o1 | inconclusive: 14.1 µM [activator, partial curve, poor fit] |  |
| Cn1cccc1Cc1nnc(SCC(=O)N2CCCc3ccccc32)n1-c1ccc(F)cc1 | inconclusive: 28.2 µM [activator, single point] |  |
| CC(=O)c1ccc(NC(=O)c2ccc(-c3nc(CSc4ccccc4)c(C)o3)cc2)cc1 | inconclusive: 31.6 µM [activator, partial curve, poor fit] |  |
| Cc1ccc(-n2c(Cc3cccn3C)nnc2SCC(=O)N2CCc3ccccc32)cc1 | inconclusive: 28.2 µM [activator, single point] |  |
| CCOC(=O)C(=NC(C)CC)NNc1ccc(Br)cc1 (stereo not drawn) |  | inactive: 11.7% |
| N#Cc1cnc(NCc2ccc(Cl)cc2Cl)nc1 |  | inactive: -32.2% |
| COc1ccc(N2C(=O)CC(Sc3n[nH]c(-c4cccc(C)c4)n3)C2=O)cc1 (stereo not drawn) | inconclusive: 50.1 µM [activator, partial curve, poor fit] |  |
| CCOC(=O)[C@]12CCC=C1N(Cc1ccc3c(c1)OCO3)C(=O)[C@H](CC(=O)N1CCC(c3ccccc3)CC1)C2 | inconclusive: 11.2 µM [activator, partial curve] |  |
| O=C(CN1C(=O)COc2ccc(S(=O)(=O)N3CCCCC3)cc21)NCc1ccc(Cl)cc1 | inconclusive: 39.8 µM [activator, single point] |  |
| Cc1ccc(CNCc2c(C(=O)O)n(Cc3ccc(C)cc3)c3cc(C)ccc23)cc1 | inconclusive: 31.6 µM [activator, single point] |  |

| SMILES | Potency | growth rescue (activation) |
| --- | --- | --- |
| CC1=C(C(=O)Nc2ccccc2)C(c2ccc(C)o2)N2C(=O)CSC2=N1 (stereo not drawn) | inconclusive: 31.6 µM [activator, single point] |  |
| Cc1ccc(-c2nc3cccnc3o2)cc1NC(=O)COc1ccc(C(C)(C)C)cc1 | active: 31.6 µM |  |
| COc1ccc(-c2noc(CNS(=O)(=O)c3ccc(Br)cc3)n2)cc1OC |  | inactive: 38.8% |
| Cc1cc(C)cc(NC(=O)CSc2nnc(-c3cc4occc4n3C)n2-c2ccccc2C)c1 | inconclusive: 2.24 µM [activator, full curve, poor fit] |  |
| C[C@H](NC(=O)c1nc[nH]c1C(=O)NC(c1ccccc1)c1ccccc1)C(=O)OCc1ccccc1 | inconclusive: 10 µM [activator, full curve] |  |
| CCOC(=O)C1=C(N)OC2=C(C(=O)CCC2)C1c1cccnc1 (stereo not drawn) | inconclusive: 2.24 µM [activator, full curve] |  |
| Cc1ccc(S(=O)(=O)N(C)C)cc1NC(=S)NC(C)CCCC(C)C (stereo not drawn) | inconclusive: 31.6 µM [activator, single point] |  |
| O=C(N/N=C/c1sc(N2CCCCC2)nc1-c1cccs1)c1cccnc1 | inconclusive: 50.1 µM [activator, single point] |  |
| CN(Cc1cccs1)c1ncnc2ccc(-c3ccc4c(c3)OCO4)cc12 | inconclusive: 17.8 µM [activator, partial curve] |  |
| CC(C)c1ccc(S(=O)(=O)N2CCN(C(=O)c3cccc(S(=O)(=O)N4CCOCC4)c3)CC2)cc1 | inconclusive: 39.8 µM [activator, single point] |  |
| COC(=O)Cn1cnc2sc(C)c(S(=O)(=O)N3CCN(c4ccccc4OC)CC3)c2c1=O |  | inconclusive: 48.7% [activator] |
| O=C(O)CC(NC(=O)C1c2ccccc2Oc2ccccc21)c1ccc(OC2CCCC2)cc1 (stereo not drawn) | inconclusive: 50.1 µM [activator, single point] |  |
| Cc1sc(NC(=O)CN2CCOCC2)nc1-c1ccc2c(c1)CCN2S(=O)(=O)c1ccccc1 | inconclusive: 22.4 µM [activator, partial curve, poor fit] |  |
| CCC(C)c1ccc(NC(=O)c2c([N+](=O)[O-])cnn2CC)cc1 (stereo not drawn) |  | inactive: 4.04% |
| C[C@H](CO)N1C[C@H](C)[C@H](CN(C)C(=O)c2ccccc2)OCc2ccccc2-c2c(n(C)c3ccccc23)C1=O | inconclusive: 17.8 µM [activator, partial curve, poor fit] |  |
| O=C(C1CCC(Cn2c(=O)c3sccc3n(Cc3ccccc3F)c2=O)CC1)N1CCCCC1 (stereo not drawn) | inconclusive: 22.4 µM [activator, partial curve, poor fit] |  |
| CC(OC(=O)c1ccccc1NS(=O)(=O)c1cccc(C(F)(F)F)c1)C(=O)N(C)Cc1ccccc1 (stereo not drawn) | inconclusive: 35.5 µM [activator, partial curve, poor fit] |  |
| COc1cccc(CN(C)S(=O)(=O)c2ccc3c(c2)OCCO3)c1 |  | inactive: 16.8% |
| CCOC(=O)c1c(C)n(O)c2ccc(Cl)cc2c1=O |  | inconclusive: 61.9% [activator] |
| COc1ccc(CCNC(=O)CCn2c(=O)c3ccccc3n(CC(=O)Nc3ccc(C)cc3C)c2=O)cc1OC | inconclusive: 31.6 µM [activator, single point] |  |
| Cc1ccc(-c2cn(-c3ccccc3F)c(=S)[nH]2)cc1 |  | inactive: 26.1% |

| SMILES | Potency | growth rescue (activation) |
| --- | --- | --- |
| CCN1CCc2c(C#N)c(N3CCOCC3)nc(NCCO)c2C1 |  | inactive: 11.1% |
| O=C(Cn1c(SCC(=O)N2CCc3ccccc32)nc2ccccc21)NC1CCCC1 | inconclusive: 11.2 µM [activator, single point] |  |
| Cc1ccc(Sc2ccc(S(=O)(=O)Nc3ccc(CC(=O)O)cc3)cc2)cc1C | inconclusive: 31.6 µM [activator, single point] |  |
| C=CCNC(=O)c1nc2ccccc2s1 |  | inactive: -14.6% |
| CCN(CCCNC(=O)c1cc(Nc2ccccc2OC)nc2ccccc12)c1cccc(C)c1 | inconclusive: 35.5 µM [activator, single point] |  |
| C[C@@H]1CN([C@@H](C)CO)C(=O)CCCn2nncc2CO[C@@H]1CN(C)C(=O)Nc1ccc(N2CCCCC2)cc1 |  | inactive: 2.03% |
| COc1ccccc1C(=O)Nc1nnc(-c2ccc3c(c2)CCCC3)o1 | inconclusive: 35.5 µM [activator, single point] |  |
| O=C(Cn1c(=O)sc2ccccc21)Nc1ccc(S(=O)(=O)N2CCCCC2)cc1 | inconclusive: 31.6 µM [activator, single point] |  |
| COc1cccc(C(=O)OCC(=O)N2CCC(Cc3ccccc3)CC2)c1OC | inconclusive: 25.1 µM [activator, partial curve] |  |
| CC(=O)Nc1sc2c(c1-c1nc3ccccc3s1)CN(C(C)C)CC2 |  | inactive: -17.9% |
| O=C1C2=C(NC(=S)NC2c2ccc(Cl)cc2)NC(c2ccc(Cl)cc2)N1c1ccc(Cl)cc1 (stereo not drawn) | active: 28.2 µM |  |
| COc1ccc(CCNC(=O)c2ccc3c(c2)N(Cc2ccc(F)cc2)CCS3)cc1OC | inconclusive: 28.2 µM [activator, single point] |  |
| CC(=O)NCc1ccc(-c2csc(NC(=O)CCCc3nc4ccccc4c(=O)[nH]3)n2)cc1 | inconclusive: 25.1 µM [activator, partial curve] |  |
| CCOc1ccccc1CNC(=O)c1cccn1-c1nnc(N2CCCCC2)s1 | inconclusive: 50.1 µM [activator, single point] |  |
| Cc1cccc(OCC(=O)Nc2ccc3c(c2)nc(CCN2CCN(c4ccccn4)CC2)n3C)c1 |  | inactive: 18.7% |
| Cc1ccnc(NC(=O)C23CC4CC(CC(C4)C2)C3)c1 |  | inconclusive: 60.1% [activator] |
| COc1ccc(CN2C(C(=O)NC3CCCC3)CSCCS2(=O)=O)cc1 (stereo not drawn) |  | inactive: -6.21% |
| Cc1ccc(NC(=O)C2CCN(S(=O)(=O)c3ccc4c(c3)NC(=O)CO4)CC2)cc1C | inconclusive: 39.8 µM [activator, single point] |  |
| N#Cc1cccc(NC(=O)c2cc3c(s2)-c2ccc(Cl)cc2SC3)c1 |  | inactive: -1.65% |
| CCN(CC(=O)Nc1ccc2c(c1)OCCO2)C(=O)/C=C/c1cccc(Br)c1 |  | inactive: 34.4% |
| CCc1ccccc1NC(=O)c1cc(S(=O)(=O)N2CCCc3ccccc32)ccc1F | inconclusive: 15.8 µM [activator, partial curve] |  |
